Columns and labels:
E. coli = experiment: Inhibition zone of E. coli colonies exposed to composition of Table 1 in presence of antibiotics
Listeria = experiment: Inhibition zone of Listeria colonies exposed to composition of Table 1 in presence of antibiotics; format: cell-based; conditions: composition listed in Table 1 in presence of the antibiotic; for Colonies showing a decreasing inhibition zone / Colonies showing increasing inhibition zone / Number of colonies with no change in inhibition zone: 30 colonies; for Percent colonies showing increase in inhibition zone (%): of 30 tested colonies
S. saprophyticus = experiment: Inhibition zone of S. saprophyticus colonies exposed to composition of Table 1 in presence of antibiotics; format: cell-based; conditions: composition listed in Table 1 in presence of the antibiotic; for Colonies showing a decrease in inhibition zone / Colonies showing an increase in inhibition zone / Colonies with no change in inhibition zone: 15 colonies; for Percent colonies showing increase in inhibition zone (%): of 15 tested colonies

Molecule	Number of colonies showing a decrease in inhibition zone (E. coli; 1 h)	Number of colonies showing an increase in inhibition zone (E. coli; 1 h)	Number of colonies with no change in inhibition zone (E. coli; 1 h)	Percent colonies showing increase in inhibition zone (%) (E. coli; 1 h)	Number of colonies showing a decrease in inhibition zone (E. coli; 2 h)	Number of colonies showing an increase in inhibition zone (E. coli; 2 h)	Number of colonies with no change in inhibition zone (E. coli; 2 h)	Percent colonies showing increase in inhibition zone (%) (E. coli; 2 h)	Colonies showing a decreasing inhibition zone (Listeria; 1 h)	Colonies showing increasing inhibition zone (Listeria; 1 h)	Number of colonies with no change in inhibition zone (Listeria; 1 h)	Percent colonies showing increase in inhibition zone (%) (Listeria; 1 h)	Colonies showing a decreasing inhibition zone (Listeria; 2 h)	Colonies showing increasing inhibition zone (Listeria; 2 h)	Number of colonies with no change in inhibition zone (Listeria; 2 h)	Percent colonies showing increase in inhibition zone (%) (Listeria; 2 h)	Colonies showing a decrease in inhibition zone (S. saprophyticus; 1 h)	Colonies showing an increase in inhibition zone (S. saprophyticus; 1 h)	Colonies with no change in inhibition zone (S. saprophyticus; 1 h)	Percent colonies showing increase in inhibition zone (%) (S. saprophyticus; 1 h)	also measured
CC1COc2c(N3CCN(C)CC3)c(F)cc3c(=O)c(C(=O)O)cn1c23 (centres unmarked) [OFX, Ofloxacin]	5	20	5	66.7	8	17	5	56.7													
CN(C)[C@@H]1C(O)=C(C(N)=O)C(=O)[C@@]2(O)C(O)=C3C(=O)c4c(O)cccc4[C@@](C)(O)[C@H]3C[C@@H]12 [TE, Tetracycline]									2	26	2	86.7	2	26	2	86.7	0	8	7	53.3	Colonies showing a decrease in inhibition zone (S. saprophyticus; 2 h): 0; Colonies showing an increase in inhibition zone (S. saprophyticus; 2 h): 8; Colonies with no change in inhibition zone (S. saprophyticus; 2 h): 7; Percent colonies showing increase in inhibition zone (%) (S. saprophyticus; 2 h): 53.3%
CN[C@H](CC(C)C)C(=O)N[C@H]1C(=O)N[C@@H](CC(N)=O)C(=O)N[C@H]2C(=O)N[C@H]3C(=O)N[C@H](C(=O)N[C@H](C(=O)O)c4cc(O)cc(O)c4-c4cc3ccc4O)[C@H](O)c3ccc(c(Cl)c3)Oc3cc2cc(c3O[C@@H]2O[C@H](CO)[C@@H](O)[C@H](O)[C@H]2O[C@H]2C[C@](C)(N)[C@H](O)[C@H](C)O2)Oc2ccc(cc2Cl)[C@H]1O [V, Vancomycin]																	2	8	5	53.3	Colonies showing a decrease in inhibition zone (S. saprophyticus; 2 h): 1; Colonies showing an increase in inhibition zone (S. saprophyticus; 2 h): 10; Colonies with no change in inhibition zone (S. saprophyticus; 2 h): 4; Percent colonies showing increase in inhibition zone (%) (S. saprophyticus; 2 h): 66.7%
CC1(C)S[C@@H]2[C@H](NC(=O)[C@H](N)c3ccccc3)C(=O)N2[C@H]1C(=O)O [AMP, Ampicillin]									6	20	4	66.7	6	21	3	70.0					
CO/N=C(\C(=O)N[C@@H]1C(=O)N2C(C(=O)O)=C(COC(C)=O)CS[C@H]12)c1csc(N)n1 [CTX, Cefotaxime]	3	26	1	86.7	5	22	3	73.3													
Trimethoprim-Sulfamethoaxzole [SXT]									0	30	0	100	0	30	0	100					
